The values below come from the supplement of paper PMC11417369.

± gives the standard deviation of the averaged measurements. The list shows a part of the results.

In this assay the test system is PfAP2-I AP2 domain 3 (GST-tagged). Briefly: gcPBM binding intensity (ln(normalized median fluorescence intensity)); higher = stronger DNA binding. The essentials:
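After 1 h on an Agilent 4 × 180k array of primer-extended double-stranded 36-bp intergenic genomic probes and negative controls, bound GST-tagged P. falciparum DNA-binding domains were detected with Alexa488 anti-GST antibody and scanned at 488 nm. The domains had been expressed in E. coli, and binding took place in 1× PBS with 1% milk, 0.2 mg/ml BSA, 0.5% salmon testes DNA and 0.03% Triton X-100. Binding intensity is the highest Masliner-normalised natural-log median intensity across replicate spots of either probe orientation.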
As for AGTAGATTTTTATTAGTGCATTTTATACTACAAAAA, the “gcPBM binding intensity (ln)” value turned out to be 9.71 ± 0.24.

On to “TATATGTTTAATTTCACACACAAATATACATTTTAA [CACACA_site4171]”, for which the “gcPBM binding intensity (ln)” value amounted to 7.62 ± 0.46.

On to “CATTAGCATTTTATTACACACAATAAATTAGAAGTA [CACACA_site7837]”, for which the “gcPBM binding intensity (ln)” value worked out at 7.74 ± 0.46.

Consider “ATATTTATTTATATCATACACACTAATATGTATATT [CACACA_site7576]”, for which the “gcPBM binding intensity (ln)” value was 7.86 ± 0.45.

Regarding “TTTTAAAACAATGAGATTCCTTTCTTTTTTTCTTTT [CACACA_negctrl_site1320]”, the “gcPBM binding intensity (ln)” value amounted to 7.05 ± 0.69.

For “CTTAATGATAAATACATACACACAAAAAATAATATA [CACACA_site2577]”, the “gcPBM binding intensity (ln)” value was 7.71 ± 0.59.

In the case of “TATCCCTTAGAATACACACCCATATGAGGGTGAACT [CACACA_site5610]”, the “gcPBM binding intensity (ln)” value amounted to 7.76 ± 0.26.

Turning to “TTTTTGTTAACAATGGGTACAAAAAAAAGGAAAATA [XGTACX_site7466]”, the “gcPBM binding intensity (ln)” value was determined as 8.08 ± 0.45.

On to “CCCAAAAAATATCATAGTACTCAACATGACTACTAT [XGTACX_site7838]”, for which the “gcPBM binding intensity (ln)” value amounted to 7.7 ± 0.55.

Regarding “AATTTTGTATAGGTATCACACATGAAATATATTATT [CACACA_site5526]”, the “gcPBM binding intensity (ln)” value is 7.71 ± 0.61.

As for “AAATAAAATAATAAAACATGCAAAAATAATGATTTA [TGCATGCA_site415]”, the “gcPBM binding intensity (ln)” value came out at 7.71 ± 0.76.

Take “ATAAAGATTAACAAAGTGCATTTATATATATAATCT [GTGCAC_site9407]”: the “gcPBM binding intensity (ln)” value turned out to be 9.865 ± 0.092.

“TATAAATAAATAGATACACACATATTTATAAATACA [CACACA_site6219]”: the “gcPBM binding intensity (ln)” value came to 7.51 ± 0.4.

As to “ATAAAAGATATGTATATGTATATGTATATATATATA [TGCATGCA_negctrl_site214]”, the “gcPBM binding intensity (ln)” value amounted to 9.21 ± 0.22.

For the sequence “GCTTAAGGTAAATATAAAATATAGTGTATACTTTAG [XGTACX_negctrl_site585]”, the “gcPBM binding intensity (ln)” value worked out at 7.42 ± 0.6.

Consider TTACGCTGCTATATAGTGCACATAATATATGACCTG, for which the “gcPBM binding intensity (ln)” value worked out at 11 ± 0.24.

For the sequence “TGAATAATCAATAGTACACACATATAAATATAAATA [CACACA_site7345]”, the “gcPBM binding intensity (ln)” value was found to be 7.88 ± 0.31.

In the case of “TTTTATTTATTATTATGTACACACTATATTAAAACA [XGTACX_site1265]”, the “gcPBM binding intensity (ln)” value turned out to be 8.17 ± 0.4.

For the sequence “ACTTAGGAAATAAAACGTACATTAAATATATACATA [XGTACX_site2990]”, the “gcPBM binding intensity (ln)” value was 7.84 ± 0.35.

As for “GTATGTATGTATGTATGTACTTATTAATCAGTAAAA [XGTACX_site3844]”, the “gcPBM binding intensity (ln)” value was determined as 8.93 ± 0.35.

Consider “TTAAGGCATCAACATAGTACAATTTTTCTATAATAA [XGTACX_site1114]”, for which the “gcPBM binding intensity (ln)” value is 7.57 ± 0.45.

For “ATTTAATACAAATACACACACAAATAAATACAGATA [CACACA_site5956]”, the “gcPBM binding intensity (ln)” value worked out at 7.93 ± 0.55.

For the sequence “TTTATAATTCTTACAACACACAATGTACTTTTATAT [CACACA_site8340]”, the “gcPBM binding intensity (ln)” value was determined as 8.04 ± 0.28.

Take “TTTATTTCCTTTTTGTGTACATATATATGTAATTCA [XGTACX_site1718]”: the “gcPBM binding intensity (ln)” value is 8.05 ± 0.57.

On to “ATTCTACGCACGCGCACACACAACAAAAAAAAAAAA [CACACA_site3538]”, for which the “gcPBM binding intensity (ln)” value came to 9.56 ± 0.31.

In the case of “GTGATGGTACAATATACACACTTAAAAAAAAAAAAT [CACACA_site5360]”, the “gcPBM binding intensity (ln)” value turned out to be 7.82 ± 0.28.

As to “TATATACATATATATTGTACTTATTTTTATAATGTC [XGTACX_site3453]”, the “gcPBM binding intensity (ln)” value amounted to 7.83 ± 0.22.

As for “CATGTGTGATAATGATGTACTATATTAAGCTAGTCC [XGTACX_site2690]”, the “gcPBM binding intensity (ln)” value was determined as 7.63 ± 0.54.

Regarding “AAGTATGTATCACAAAGTACTTAAGCATATATTTAA [XGTACX_site4121]”, the “gcPBM binding intensity (ln)” value came to 7.58 ± 0.47.

As for “TTGTAATAAATAAAAGTGCATATATGGTTCCACTAT [GTGCAC_site9944]”, the “gcPBM binding intensity (ln)” value was 9.81 ± 0.11.

Consider “TTATTTTTTTATTCATGTACACAAGAACATTTCATT [XGTACX_site5744]”, for which the “gcPBM binding intensity (ln)” value is 7.82 ± 0.71.

On to “TACAAATATGGACACACACACATATATATATATATA [CACACA_site4488]”, for which the “gcPBM binding intensity (ln)” value amounted to 9.49 ± 0.43.

Turning to “TAAATATATTGGAGAGGTACACTTTTGGCATTGAAA [XGTACX_site8447]”, the “gcPBM binding intensity (ln)” value turned out to be 7.87 ± 0.61.

Regarding “GTATAATAGAAACACACACACACACCCAAAAAAAAA [CACACA_site2010]”, the “gcPBM binding intensity (ln)” value was determined as 8.35 ± 0.11.

Turning to “GTATATATAATGTGCCGTACATTTATATATTCAATA [XGTACX_site1051]”, the “gcPBM binding intensity (ln)” value was 8.16 ± 0.52.

Turning to “TTAAATGTAATATAATGTACGGATATTTACCATAAA [XGTACX_site1472]”, the “gcPBM binding intensity (ln)” value is 7.82 ± 0.48.

As to CAATATATTATATGGGTGCAAACCACATATAAATAA, the “gcPBM binding intensity (ln)” value was determined as 10.1 ± 0.33.

On to “TTAGGTATATATAAACGTACTCACAATATCATATAA [XGTACX_site8743]”, for which the “gcPBM binding intensity (ln)” value amounted to 7.74 ± 0.48.

“AAATGTAATAATAAATGTACAAACATATATATGTAT [XGTACX_site8718]”: the “gcPBM binding intensity (ln)” value was 7.78 ± 0.52.

For “TATATATACTTTTATGTACACACCTATAATATGGGT [CACACA_site1759]”, the “gcPBM binding intensity (ln)” value amounted to 7.96 ± 0.37.

As to “AAGTTTAAAATCTTTGCACACATATAAATAAATATA [CACACA_site2554]”, the “gcPBM binding intensity (ln)” value is 8.94 ± 0.12.

“ATAAATAAATAAAAAAGTACATTTCCACTTTTAACA [XGTACX_site81]”: the “gcPBM binding intensity (ln)” value is 7.74 ± 0.34.

Take “TGCACCCACCAACACACACACAACTAAAAAATAATG [CACACA_site2566]”: the “gcPBM binding intensity (ln)” value stood at 8.16 ± 0.25.

Regarding ACATATTAAATATGAGTGCAATATATATATATATAA, the “gcPBM binding intensity (ln)” value is 10.9 ± 0.43.

Take “TATTATATCTTTTCAAGTACACATAACATACTTATT [XGTACX_site1081]”: the “gcPBM binding intensity (ln)” value worked out at 7.95 ± 0.59.
